The other results are listed elsewhere or left out. Cut-off read from the data, not from the text of the source: active = 3.2 or more and inactive = the rest. Only a few entries rise above the background.
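Note: displayed peptides selected on beads carrying the immobilized SH2 domain, with library peptides lacking any tyrosine serving as negative controls.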

For one assay, the target named is SHP2 C-SH2 domain E139D. Briefly: enrichment score (SH2-bound / input frequency) (ratio); bacterial display of known human phosphotyrosine sites (pTyr-Var adds point mutants) read by sequencing; higher = stronger binding; tyrosines were phosphorylated by kinases first. Particulars: peptide library: pTyr-Var.
For the molecule DVLPEYKLQAP [KCNH2_Y388], the enrichment score was inactive: 0.592.
EWQQTYTFDSG [JUP_Y20_YF]: the enrichment score was inactive: 0.979.
On the same count and under the same terms, the same measure for LGSVVYAQSKE [KCNQ2_Y226_H228Q]: inactive: 0.673; for SIKDKYVMALF [KCNH2_Y611_T613M_YF]: inactive: 0.969.
Take DPFHVYIKNHV [KCNE3_Y95_R99H_YF]: the enrichment score is inactive: 0.832.
On the same count and under the same terms, the same measure for DMDATYRPMFS [JUP_Y701_YF]: inactive: 0.841; for SIKDKYVMALY [KCNH2_Y611_T613M]: inactive: 1.1.
Take VRKRSYSAGNA [KANK1_Y324]: the enrichment score is inactive: 0.27.
The same measure, in the same setting: the same measure for SIKDKYVTALY [KCNH2_Y611]: inactive: 1.01; for PINEPYGDDLD [JUP_Y693_M697L]: inactive: 0.736.
On the same count and under the same terms, the same measure for SCRSKYVGLWG [KCNQ1_Y184_G179S]: inactive: 0.784; for SIKGKYVTALF [KCNH2_Y611_D609G_YF]: inactive: 0.799; for SIKDKYVTVLY [KCNH2_Y611_A614V]: inactive: 0.921.
On the same count and under the same terms, for SIKDKYVTAFY [KCNH2_Y611_L615F] the value was inactive: 0.851.
On to GCRSKYVGLWG [KCNQ1_Y184], for which the enrichment score was inactive: 0.719.
Still for that read-out and setting: for SIKHKYVTALY [KCNH2_Y611_D609H] the value was inactive: 0.747.
On to MRALTYCDLHK [KCNH2_Y827_V822M], for which the enrichment score is inactive: 0.937.
As to VRALTYCDLHK [KCNH2_Y827], the enrichment score is inactive: 0.734.
In the case of PAKPRYRARQR [KCNJ11_Y26_E23K], the enrichment score is inactive: 0.29.

For another assay, the target named is SHP2 C-SH2 domain wild-type. The assay is described as above. Particulars: peptide library: pTyr-Var.
In the case of DVLPEYKLQAP [KCNH2_Y388], the enrichment score was inactive: 0.632.
As to EWQQTYTFDSG [JUP_Y20_YF], the enrichment score is inactive: 0.757.
As to LGSVVYAQSKE [KCNQ2_Y226_H228Q], the enrichment score was inactive: 1.03.
For the molecule SIKDKYVMALF [KCNH2_Y611_T613M_YF], the enrichment score is inactive: 0.966.
The same measure, in the same setting: the same measure for DPFHVYIKNHV [KCNE3_Y95_R99H_YF]: inactive: 0.81; for DMDATYRPMFS [JUP_Y701_YF]: inactive: 0.701.
On the same count and under the same terms, for SIKDKYVMALY [KCNH2_Y611_T613M] the value was inactive: 0.727.
Same read-out and setting: the same measure for VRKRSYSAGNA [KANK1_Y324]: inactive: 0.306.
As for SIKDKYVTALY [KCNH2_Y611], the enrichment score was inactive: 0.847.
Same read-out and setting: the same measure for PINEPYGDDLD [JUP_Y693_M697L]: inactive: 0.521; for SCRSKYVGLWG [KCNQ1_Y184_G179S]: inactive: 0.74.
Take SIKGKYVTALF [KCNH2_Y611_D609G_YF]: the enrichment score was inactive: 0.819.
For SIKDKYVTVLY [KCNH2_Y611_A614V], the enrichment score was inactive: 1.45.
Same read-out and setting: for SIKDKYVTAFY [KCNH2_Y611_L615F] the value was inactive: 0.797.
The same measure, in the same setting: for GCRSKYVGLWG [KCNQ1_Y184] the value was inactive: 0.748; for SIKHKYVTALY [KCNH2_Y611_D609H], inactive: 0.781; for MRALTYCDLHK [KCNH2_Y827_V822M], inactive: 1.27.
Still for that read-out and setting: the same measure for VRALTYCDLHK [KCNH2_Y827]: inactive: 1.01; for PAKPRYRARQR [KCNJ11_Y26_E23K]: inactive: 0.223.

The next assay addresses SHP2 N-SH2 domain L43F. The assay is described as above. The note with it: peptide library: pTyr-Var.
In the case of DVLPEYKLQAP [KCNH2_Y388], the enrichment score was inactive: 0.684.
Same read-out and setting: the same measure for EWQQTYTFDSG [JUP_Y20_YF]: inactive: 0.876; for LGSVVYAQSKE [KCNQ2_Y226_H228Q]: inactive: 0.948.
On the same count and under the same terms, for SIKDKYVMALF [KCNH2_Y611_T613M_YF] the value was inactive: 1.48; for DPFHVYIKNHV [KCNE3_Y95_R99H_YF], inactive: 0.663.
The same measure, in the same setting: for DMDATYRPMFS [JUP_Y701_YF] the value was inactive: 0.668.
For SIKDKYVMALY [KCNH2_Y611_T613M], the enrichment score is inactive: 0.72.
VRKRSYSAGNA [KANK1_Y324]: the enrichment score was inactive: 0.263.
For the molecule SIKDKYVTALY [KCNH2_Y611], the enrichment score was inactive: 0.71.
Take PINEPYGDDLD [JUP_Y693_M697L]: the enrichment score is inactive: 0.549.
On the same count and under the same terms, for SCRSKYVGLWG [KCNQ1_Y184_G179S] the value was inactive: 0.741; for SIKGKYVTALF [KCNH2_Y611_D609G_YF], inactive: 2.08; for SIKDKYVTVLY [KCNH2_Y611_A614V], inactive: 1.28.
Consider SIKDKYVTAFY [KCNH2_Y611_L615F], for which the enrichment score is inactive: 1.18.
On to GCRSKYVGLWG [KCNQ1_Y184], for which the enrichment score is inactive: 0.593.
In the case of SIKHKYVTALY [KCNH2_Y611_D609H], the enrichment score was inactive: 0.757.
For the molecule MRALTYCDLHK [KCNH2_Y827_V822M], the enrichment score was inactive: 1.16.
For the molecule VRALTYCDLHK [KCNH2_Y827], the enrichment score is inactive: 0.795.
Regarding PAKPRYRARQR [KCNJ11_Y26_E23K], the enrichment score was inactive: 0.201.

A further assay concerns the target SHP2 N-SH2 domain T42A. The description is as above. Particulars: peptide library: pTyr-Var.
With DVLPEYKLQAP [KCNH2_Y388], the enrichment score is inactive: 0.515.
As for EWQQTYTFDSG [JUP_Y20_YF], the enrichment score was inactive: 1.05.
Take LGSVVYAQSKE [KCNQ2_Y226_H228Q]: the enrichment score was inactive: 0.602.
The same measure, in the same setting: the same measure for SIKDKYVMALF [KCNH2_Y611_T613M_YF]: inactive: 0.948; for DPFHVYIKNHV [KCNE3_Y95_R99H_YF]: inactive: 0.888.
The same measure, in the same setting: the same measure for DMDATYRPMFS [JUP_Y701_YF]: inactive: 1.89.
On the same count and under the same terms, the same measure for SIKDKYVMALY [KCNH2_Y611_T613M]: inactive: 0.891; for VRKRSYSAGNA [KANK1_Y324]: inactive: 0.277; for SIKDKYVTALY [KCNH2_Y611]: inactive: 0.774.
As to PINEPYGDDLD [JUP_Y693_M697L], the enrichment score was inactive: 0.551.
As for SCRSKYVGLWG [KCNQ1_Y184_G179S], the enrichment score was inactive: 1.25.
Regarding SIKGKYVTALF [KCNH2_Y611_D609G_YF], the enrichment score was inactive: 1.32.
For SIKDKYVTVLY [KCNH2_Y611_A614V], the enrichment score is inactive: 1.55.
Turning to SIKDKYVTAFY [KCNH2_Y611_L615F], the enrichment score was inactive: 0.807.
Turning to GCRSKYVGLWG [KCNQ1_Y184], the enrichment score was inactive: 0.628.
The same measure, in the same setting: for SIKHKYVTALY [KCNH2_Y611_D609H] the value was inactive: 0.787.
For the molecule MRALTYCDLHK [KCNH2_Y827_V822M], the enrichment score was inactive: 1.15.
VRALTYCDLHK [KCNH2_Y827]: the enrichment score is inactive: 1.07.
As to PAKPRYRARQR [KCNJ11_Y26_E23K], the enrichment score was inactive: 0.251.

The target of another assay is SHP2 N-SH2 domain T52S. The description is as above. The note with it: peptide library: pTyr-Var.
As to DVLPEYKLQAP [KCNH2_Y388], the enrichment score is inactive: 0.472.
The same measure, in the same setting: the same measure for EWQQTYTFDSG [JUP_Y20_YF]: inactive: 0.944; for LGSVVYAQSKE [KCNQ2_Y226_H228Q]: inactive: 0.864.
Same read-out and setting: the same measure for SIKDKYVMALF [KCNH2_Y611_T613M_YF]: inactive: 1.41; for DPFHVYIKNHV [KCNE3_Y95_R99H_YF]: inactive: 0.771; for DMDATYRPMFS [JUP_Y701_YF]: inactive: 0.762.
With SIKDKYVMALY [KCNH2_Y611_T613M], the enrichment score is inactive: 0.977.
On the same count and under the same terms, for VRKRSYSAGNA [KANK1_Y324] the value was inactive: 0.222.
Still for that read-out and setting: the same measure for SIKDKYVTALY [KCNH2_Y611]: inactive: 0.73; for PINEPYGDDLD [JUP_Y693_M697L]: inactive: 0.495; for SCRSKYVGLWG [KCNQ1_Y184_G179S]: inactive: 0.619.
Same read-out and setting: the same measure for SIKGKYVTALF [KCNH2_Y611_D609G_YF]: inactive: 2.71; for SIKDKYVTVLY [KCNH2_Y611_A614V]: inactive: 1.26; for SIKDKYVTAFY [KCNH2_Y611_L615F]: inactive: 1.33.
Turning to GCRSKYVGLWG [KCNQ1_Y184], the enrichment score is inactive: 0.685.
Same read-out and setting: for SIKHKYVTALY [KCNH2_Y611_D609H] the value was inactive: 0.721; for MRALTYCDLHK [KCNH2_Y827_V822M], inactive: 0.781; for VRALTYCDLHK [KCNH2_Y827], inactive: 0.879.
With PAKPRYRARQR [KCNJ11_Y26_E23K], the enrichment score was inactive: 0.269.

The target in the next assay is SHP2 N-SH2 domain wild-type. Described as above. Particulars: peptide library: pTyr-Var.
With DVLPEYKLQAP [KCNH2_Y388], the enrichment score was inactive: 0.747.
Take EWQQTYTFDSG [JUP_Y20_YF]: the enrichment score is inactive: 1.02.
Take LGSVVYAQSKE [KCNQ2_Y226_H228Q]: the enrichment score was inactive: 1.1.
Consider SIKDKYVMALF [KCNH2_Y611_T613M_YF], for which the enrichment score is inactive: 1.12.
Consider DPFHVYIKNHV [KCNE3_Y95_R99H_YF], for which the enrichment score is inactive: 0.784.
The same measure, in the same setting: the same measure for DMDATYRPMFS [JUP_Y701_YF]: inactive: 0.768.
The same measure, in the same setting: for SIKDKYVMALY [KCNH2_Y611_T613M] the value was inactive: 1.23.
Take VRKRSYSAGNA [KANK1_Y324]: the enrichment score was inactive: 0.729.
Consider SIKDKYVTALY [KCNH2_Y611], for which the enrichment score is inactive: 0.759.
Same read-out and setting: the same measure for PINEPYGDDLD [JUP_Y693_M697L]: inactive: 0.422.
Same read-out and setting: the same measure for SCRSKYVGLWG [KCNQ1_Y184_G179S]: inactive: 0.763; for SIKGKYVTALF [KCNH2_Y611_D609G_YF]: inactive: 1.37; for SIKDKYVTVLY [KCNH2_Y611_A614V]: inactive: 1.09.
As to SIKDKYVTAFY [KCNH2_Y611_L615F], the enrichment score is inactive: 0.818.
GCRSKYVGLWG [KCNQ1_Y184]: the enrichment score is inactive: 0.654.
As for SIKHKYVTALY [KCNH2_Y611_D609H], the enrichment score was inactive: 0.753.
As for MRALTYCDLHK [KCNH2_Y827_V822M], the enrichment score was inactive: 1.21.
Turning to VRALTYCDLHK [KCNH2_Y827], the enrichment score is inactive: 1.09.
Same read-out and setting: the same measure for PAKPRYRARQR [KCNJ11_Y26_E23K]: inactive: 0.287.

Values taken from the supplement of paper PMC10369915.
